Laboratory results: the supplement of paper PMC11417369
± gives the standard deviation of the averaged measurements. Some of the results follow.

system: PfAP2-I AP2 domain 3 (GST-tagged); assay: gcPBM binding intensity (ln(normalized median fluorescence intensity)); higher = stronger DNA binding
Method in brief: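 GST-fused DNA-binding domains of P. falciparum, expressed in E. coli, were applied at about 25 μg on average for 1 h to an Agilent 4 × 180k array of primer-extended double-stranded 36-bp intergenic genomic probes and negative controls. Binding intensity is the highest Masliner-normalised natural-log median intensity across replicate spots of either probe orientation, measured with Alexa488 anti-GST antibody and a 488 nm scan.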

“TTTCTTCTTCAATGTTGTACTTTTCTCTTTTCTTAA [XGTACX_site1017]” and “GTTCATAAAAATTTTTGTACCCATAAAATATTCCTC [XGTACX_site8611]” are within error of each other in “gcPBM binding intensity (ln)” value: 7.96 ± 0.61 for the first, 8.07 ± 0.58 for the second.

“TTTTTTTTTTTTAATTGTACTTATTAAAAAAAGCAA [XGTACX_site8713]” and “GTAGGTGTTTTTGGTTGTACATATAAATATATATAC [XGTACX_site3380]” are within error of each other in “gcPBM binding intensity (ln)” value: 8.05 ± 0.64 for the first, 8.28 ± 0.45 for the second.

Compared with “GAAGTTTTCTTAAAGATGCACTTTTTAAAAATAAAA [GTGCAC_site9941]”, “TCTTCTTTTTTTTTTTTGTATTATTATAAATATTAT [CACACA_negctrl_site1668]” is lower in “gcPBM binding intensity (ln)” value: 8.94 ± 0.25 for the first, 7.62 ± 0.37 for the second.

First: AAGATAAAATGATGCACACAAAAGGGTGTAATATAT [CACACA_site1706]
Second: TTTTTTTTTTTTAATGCACACAATATATAATATGTA [CACACA_site3694]
The “gcPBM binding intensity (ln)” value of the first is lower: 9.22 ± 0.29 for the first, 11.2 ± 0.4 for the second.

Going from “TTTTTTTTTTTTCAATCACACATGTTTTAATTATTT [CACACA_site5532]” to “TGTAATAATATTTATGTGCACATATATTAAACTATA [GTGCAC_site9584]”, the “gcPBM binding intensity (ln)” value rises from 8.11 ± 0.86 to 9.88 ± 0.057.

“TCATTTCACAGACACACACACACAAGATATTTCCTT [CACACA_site7774]” and “TGTACGTTTTATAACACACACACAAAAAAAAAAAAA [CACACA_site3875]” are within error of each other in “gcPBM binding intensity (ln)” value: 8.02 ± 0.57 for the first, 8.21 ± 0.57 for the second.

“TATGCACTTTAGGGCAGTACGTCAACATTATCTTTA [XGTACX_site3382]” and “CCTCATACGAAATATAAACACACATACAATAAATAA [CACACA_site8620]” are within error of each other in “gcPBM binding intensity (ln)” value: 8.38 ± 0.19 for the first, 7.78 ± 0.65 for the second.

Compared with TGTTAAAATTATTTGGTGCACTTGTTTTACCTTATT, “TATATTTATTATAACACACACATATAAATATTATAG [CACACA_site6726]” is lower in “gcPBM binding intensity (ln)” value: 10.8 ± 0.48 for the first, 7.95 ± 0.48 for the second.

Going from “ATAAATTTTTTTTTTTTTTTTTTTTTTTTTTTTTTT [CACACA_negctrl_site508]” to “ATTTTTTTCATAGACACACACAATATATCTGTTTCC [CACACA_site3023]”, the “gcPBM binding intensity (ln)” value falls from 10.09 ± 0.014 to 8.11 ± 0.81.

Going from ATATTATTATATATAGTGCATATTATTATTTTTATT to “CATTATTCTTTTAATATACACACTTTGTCTTTTCGC [CACACA_site2762]”, the “gcPBM binding intensity (ln)” value falls from 10.2 ± 0.42 to 7.94 ± 0.85.

“TCTCATAGTAAACACACACACACACCCACATATATA [CACACA_site5034]” and “AAATGAACATATATGTGTACTTATATTTTTCTAAAT [XGTACX_site3388]” are within error of each other in “gcPBM binding intensity (ln)” value: 8.24 ± 0.26 for the first, 7.72 ± 0.35 for the second.

“ATATATTTTTCTTTACGTACGAAGCAAAATAACATT [XGTACX_site8145]” and “AAAAAAAAAAAAAACACATGCAGAAGAAAAAAAATA [TGCATGCA_site545]” are within error of each other in “gcPBM binding intensity (ln)” value: 7.83 ± 0.45 for the first, 8.16 ± 0.62 for the second.

First: AATTGTTTTTTTTTCTTATTTTATGTTATACACACA [TGCATGCA_negctrl_site380]
Second: TCATTAAATGTTTAGGTGCATACTTTAATTTTTAAT [GTGCAC_site9906]
The “gcPBM binding intensity (ln)” value of the first is lower: 7.95 ± 0.63 for the first, 9.32 ± 0.12 for the second.

Going from “AAAAAAAAAAAAAAAGTGCATATATAAATATTGTAT [GTGCAC_site9459]” to “ATTATATAAGTACACAAACAAGTATGAGATTCAAAA [GTGCAC_negctrl_site119]”, the “gcPBM binding intensity (ln)” value falls from 10.1 ± 0.18 to 7.96 ± 0.16.

“TGTTTTAAACTAATTTGTACATAGTTATTTATATTT [XGTACX_site7196]” and “CCATATATTTGGTATAGTACTTTTTATTTTATTTCA [XGTACX_site8933]” are within error of each other in “gcPBM binding intensity (ln)” value: 7.49 ± 0.48 for the first, 7.97 ± 0.25 for the second.

“CACAAATATATACATACACACATATATACACATATA [CACACA_site8024]” and “AAAACGCAGTTTAATATACACACCAAAAAAAAAAAA [CACACA_site3036]” are within error of each other in “gcPBM binding intensity (ln)” value: 7.83 ± 0.6 for the first, 7.92 ± 0.69 for the second.

“TTTGAGATGTGGTGTACACAAAATTAGGTACACATC [CACACA_site5773]” and “AAATATTATAATAATTGTACTATATATACAGTTATT [XGTACX_site1963]” are within error of each other in “gcPBM binding intensity (ln)” value: 8.32 ± 0.51 for the first, 7.58 ± 0.49 for the second.

“TAAAATATGTCATGGGTGCTTCTTTTTATACCTATG [GTGCAC_site9888]” and “AAAAAAAAAAAATTATGTACATATTATATATAATGG [XGTACX_site2885]” are within error of each other in “gcPBM binding intensity (ln)” value: 8.49 ± 0.38 for the first, 7.77 ± 0.45 for the second.

First: ATATATATATATTTATGTACGCATTTATAGACGTAG [XGTACX_site6031]
Second: TGTTTTTAAAAATATACACACACAGATATTATATAT [CACACA_site8162]
The “gcPBM binding intensity (ln)” value of the first is higher: 9.18 ± 0.13 for the first, 7.76 ± 0.67 for the second.

“TTTTATATTTATTTTTGTACATAAATGATCTCAAAT [XGTACX_site7768]” and “ACTTAAATAATACATACACACATGTACTTACAGAAA [CACACA_site8458]” are within error of each other in “gcPBM binding intensity (ln)” value: 7.79 ± 0.49 for the first, 8.05 ± 0.55 for the second.

“TATGATAACCATAATTGTACAGAATGAAACGTAAAT [XGTACX_site1653]” and “AAGTTTTTTTTTATCACACACAAAAAAAAAAATATA [CACACA_site1362]” are within error of each other in “gcPBM binding intensity (ln)” value: 8.13 ± 0.74 for the first, 7.82 ± 0.4 for the second.

“AAAAAATGAAAAAACTGTACGCAATTTTGTTTTTAT [XGTACX_site2299]” and “AAAAAAAAAAAAAAGTGTACCTTCAAAATAATATTG [XGTACX_site2844]” are within error of each other in “gcPBM binding intensity (ln)” value: 7.77 ± 0.41 for the first, 7.99 ± 0.61 for the second.

With “ATAAATATAAAACACACACACATATTATATATATAT [CACACA_site3064]” the “gcPBM binding intensity (ln)” value was 9.12 ± 0.29.
